# According to the supplement of paper PMC12645437, “Orthogonal IMiD-Degron Pairs Induce Selective Protein Degradation in Cells” (ACS Chemical Biology, 2025):
# The other results are listed elsewhere or left out.
# B1: Q9UKT9 (peptide)
# chain: LHCPICGFYCTQKGNLLRHIKL
# B2: Q9UKT9 (peptide)
# chain: FVCEICGRRFTQKGNLLRHIKL
# B3: Q9UKT9 (peptide)
# chain: FTCNQCGHIFTQKGNLLRHIKL
# B4: Q9UKT9 (peptide)
# chain: FECEQCGAVFTQKGNLLRHIKL
# B5: Q9UKT9 (peptide)
# chain: FGCNVCGAAFTQKGNLLRHIKL
# B6: Q9UKT9 (peptide)
# chain: FMCEVCGAWFTQKGNLLRHIKL
# B7: Q9UKT9 (peptide)
# chain: FICPQCGAQFTQKGNLLRHIKL
# B8: Q9UKT9 (peptide)
# chain: FHCNICGAKFTQKGNLLRHIKL
# B9: Q9UKT9 (peptide)
# chain: FGCEQCGACFTQKGNLLRHIKL
# B10: Q9UKT9 (peptide)
# chain: LFCNQCGFACTQKGNLLRHIKL
# B11: Q9UKT9 (peptide)
# chain: FTCEICGANFTQKGNLLRHIKL
# B12: Q9UKT9 (peptide)
# chain: FVCEICGAHFTQKGNLLRHIKL
# B13: Q9UKT9 (peptide)
# chain: FQCEVCGANFTQKGNLLRHIKL
# B14: Q9UKT9 (peptide)
# chain: FTCPICGRWFTQKGNLLRHIKL
# B15: Q9UKT9 (peptide)
# chain: FWCDVCGAFFTQKGNLLRHIKL
# B16: Q9UKT9 (peptide)
# chain: FFCSVCGHNFTQKGNLLRHIKL
# B17: Q9UKT9 (peptide)
# chain: FSCEVCGAAFTQKGNLLRHIKL
# B18: Q9UKT9 (peptide)
# chain: FYCEVCGAVFTQKGNLLRHIKL
# B19: Q9UKT9 (peptide)
# chain: FCCPQCGAEFTQKGNLLRHIKL
# B20: Q9UKT9 (peptide)
# chain: LDCEICGFGCTQKGNLLRHIKL
# B21: Q9UKT9 (peptide)
# chain: FQCSVCGHYFTQKGNLLRHIKL
# B22: Q9UKT9 (peptide)
# chain: FSCPQCGAVFTQKGNLLRHIKL
# B23: Q9UKT9 (peptide)
# chain: FGCEQCGAMFTQKGNLLRHIKL
# B24: Q9UKT9 (peptide)
# chain: FNCNQCGAQFTQKGNLLRHIKL
# B25: Q9UKT9 (peptide)
# chain: FMCPVCGAIFTQKGNLLRHIKL
# B26: Q9UKT9 (peptide)
# chain: FTCEQCGAIFTQKGNLLRHIKL
# B27: Q9UKT9 (peptide)
# chain: LLCNQCGFTCTQKGNLLRHIKL
# B28: Q9UKT9 (peptide)
# chain: FQCDICGAQFTQKGNLLRHIKL
# B29: Q9UKT9 (peptide)
# chain: FWCDVCGATFTQKGNLLRHIKL
# B30: Q9UKT9 (peptide)
# chain: FCCPICGHLFTQKGNLLRHIKL
# B31: Q9UKT9 (peptide)
# chain: FWCDICGAWFTQKGNLLRHIKL
# B32: Q9UKT9 (peptide)
# chain: LGCNQCGFICTQKGNLLRHIKL
# Molecular target: no compound (DMSO)
# Test: log2 fold change of degron read counts, EGFP-low vs EGFP+ sorted cells; higher = lower degron-EGFP level without compound (poor expression or instability)
# Conditions: compound: DMSO control; 18 h
# 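Also: jurkat cells carrying a lentiviral library of mutant zinc finger degrons fused to EGFP plus mCherry, mCherry+ cells FACS sorted, degron abundance counted by next-generation sequencing.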
row,Sequence,log2 fold change of degron read counts
1,B1,1.5
2,B2,-0.967
3,B3,-0.51
4,B4,-3.07
5,B5,-0.112
6,B6,-0.233
7,B7,-0.904
8,B8,-0.583
9,B9,-1.87
10,B10,1.43
11,B11,-0.754
12,B12,-1.69
13,B13,-2.08
14,B14,0.722
15,B15,0.639
16,B16,0.134

row,Sequence,log2 fold change of degron read counts
1,B17,-1.89
2,B18,-0.296
3,B19,-1.87
4,B20,0.375
5,B21,-0.191
6,B22,-0.388
7,B23,-0.262
8,B24,-1.11
9,B25,0.586
10,B26,-2.08
11,B27,0.0382
12,B28,-1.47
13,B29,-1.23
14,B30,-0.14
15,B31,1.37
16,B32,1.4
